Reference: US20230192795A1 (Hoffmann-La Roche, published 2023)

T1: murine IL7Ra-IL2Rg-Fc biotin (murine, UniProt P16872 21-239; P34902 23-263)
T1 construct: extracellular domain; Heterodimer of the ECD of IL7Ra and IL2Rg chains fused to an Fc; also called murine IL7Ralpha-IL2Rgamma-Fc heterodimer; murine IL7 receptor; not shown: Fc part and avi tag; Fc part
T1 sequence (looked up) 1: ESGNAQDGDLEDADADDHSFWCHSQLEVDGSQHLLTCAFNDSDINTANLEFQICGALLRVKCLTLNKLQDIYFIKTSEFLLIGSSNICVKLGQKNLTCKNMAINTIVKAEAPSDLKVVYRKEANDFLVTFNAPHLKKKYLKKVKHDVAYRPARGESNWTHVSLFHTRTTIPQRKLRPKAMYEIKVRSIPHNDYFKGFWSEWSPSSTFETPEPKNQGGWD
T1 sequence (looked up) 2: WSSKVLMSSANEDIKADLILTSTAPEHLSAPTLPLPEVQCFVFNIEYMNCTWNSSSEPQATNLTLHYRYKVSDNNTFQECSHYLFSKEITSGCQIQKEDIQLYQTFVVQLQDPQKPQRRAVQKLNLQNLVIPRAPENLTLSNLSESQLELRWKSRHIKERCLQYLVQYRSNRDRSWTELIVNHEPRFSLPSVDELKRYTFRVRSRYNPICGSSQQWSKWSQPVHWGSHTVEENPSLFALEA

T2: IL-7Rα/IL-2Rγ on human T cells (human, UniProt P16871 21-459; P31785 23-369)
T2 sequence (looked up) 1: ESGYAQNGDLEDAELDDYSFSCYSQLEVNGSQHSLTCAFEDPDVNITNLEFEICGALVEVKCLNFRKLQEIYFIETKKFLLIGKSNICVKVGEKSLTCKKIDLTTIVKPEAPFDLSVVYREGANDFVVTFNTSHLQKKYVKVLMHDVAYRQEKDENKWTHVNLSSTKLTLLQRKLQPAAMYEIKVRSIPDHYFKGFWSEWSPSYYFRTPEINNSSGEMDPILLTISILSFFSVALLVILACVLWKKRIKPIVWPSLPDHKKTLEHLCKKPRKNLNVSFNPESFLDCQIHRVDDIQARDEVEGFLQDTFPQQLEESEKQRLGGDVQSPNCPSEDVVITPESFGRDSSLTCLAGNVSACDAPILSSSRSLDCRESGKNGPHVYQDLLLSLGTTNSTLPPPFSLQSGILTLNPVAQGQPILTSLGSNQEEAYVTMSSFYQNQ
T2 sequence (looked up) 2: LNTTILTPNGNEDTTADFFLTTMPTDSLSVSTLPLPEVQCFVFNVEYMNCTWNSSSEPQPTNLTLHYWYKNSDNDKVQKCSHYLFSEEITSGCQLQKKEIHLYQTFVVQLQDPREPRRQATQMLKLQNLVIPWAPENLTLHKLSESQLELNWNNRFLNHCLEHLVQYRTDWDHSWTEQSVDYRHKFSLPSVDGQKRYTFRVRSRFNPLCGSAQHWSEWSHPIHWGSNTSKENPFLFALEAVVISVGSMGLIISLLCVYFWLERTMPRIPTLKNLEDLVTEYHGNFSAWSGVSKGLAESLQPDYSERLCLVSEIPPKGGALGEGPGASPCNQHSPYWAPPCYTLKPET


Experiments:
[1] = molecular target: T1, murine IL7Ra-IL2Rg-Fc biotin; assay: SPR, captured via anti-P329G, receptor-Fc 2.34-300 nM, 1:1 fit
Method: Surface Plasmon Resonance (SPR) experiments were performed on a Biacore 8 K with HBS-EP + 1 mg/ml BSA as running buffer. Anti-P329G Fc specific antibody (Roche internal) was directly immobilized by amine coupling on a C1 chip (Cytiva). The PD1-IL7 constructs were captured for 140 s at 5 nM. […] The dissociation phase was monitored for 800 s and triggered by switching from the sample solution to running buffer. The chip surface was regenerated after every cycle using two injections of 10 mM glycine pH 2 for 60 sec. Bulk refractive index differences were corrected for by subtracting the response obtained on the reference flow cell (containing immobilized anti P329G Fc specific IgG only). The affinity constants were derived from the kinetic rate constants by fitting to a 1:1 Langmuir binding using the Biacore evaluation software (Cytiva).
Four IL7 single variants and two IL7 double variants were compared to IL7 wild-type for binding to murine IL7 receptor (Table 19). The affinity of the IL7 variants to the IL7 receptor was determined using the recombinant heterodimer of the extracellular domains of the IL7 receptor alpha chain and the common IL2 receptor gamma chain.

[2] = molecular target: T2, IL-7Rα/IL-2Rγ on human T cells; assay: cell-based or functional assay
[3] = molecular target: T3, human PD-1 on T cells (human, UniProt Q15116 25-288); assay: cell-based or functional assay
[4] = molecular target: T2, IL-7Rα/IL-2Rγ on human T cells; assay: cell-based or functional assay; remark: listed apart in the source
[5] = molecular target: T3, human PD-1 on T cells; assay: cell-based or functional assay; remark: listed apart in the source
[6] = molecular target: T4, Human IL7Ra-IL2Rγ-Fc heterodimer (human, biotin on the avi tag); assay: SPR, captured from supernatant, 800 nM receptor-Fc single injection
T4 construct: Extracellular domains of IL-7Ralpha and IL-2Rgamma fused to Fc knob and Fc hole; also called hu IL7Ra-IL2Rγ-Fc avi biotin; human IL7Ra-IL2Rg-Fc biotin
Procedure, shortened: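 PDI-IL7 constructs were captured from supernatant (100 nM, 120 s) on anti-Fc CM5 surfaces in HBS-EP+ pH 7.4; 800 nM HEK-produced extracellular-domain receptor-Fc heterodimer was injected once (240 s association, 360 s dissociation). Binding/capture ratio recorded; koff from single-curve fit of dissociation, reference-subtracted.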

T3 sequence (Q15116 25-288 limits assumed): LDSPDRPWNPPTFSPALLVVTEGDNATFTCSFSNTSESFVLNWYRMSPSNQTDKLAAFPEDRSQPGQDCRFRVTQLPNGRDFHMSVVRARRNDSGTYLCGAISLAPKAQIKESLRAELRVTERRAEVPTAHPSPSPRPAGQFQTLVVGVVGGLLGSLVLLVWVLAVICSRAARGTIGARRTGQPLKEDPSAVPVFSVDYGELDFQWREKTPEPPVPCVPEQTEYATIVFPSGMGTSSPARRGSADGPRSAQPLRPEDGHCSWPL

| Kd [1] [nM] | koff [1] [s⁻¹] | kon [1] [M⁻¹ s⁻¹] | EC50 [PD1+]/ EC50[PD1-IL7wt] [2] [fold] | STAT5-P AUC PD1+ [2] | STAT5-P AUC PD1 blocked [2] | EC50 [PD1blocked]/ EC50 [PD1+] [3] [fold] | fold increase in EC50, EC50 [PD1+]/EC50 PD1-IL7wt [PD1+] [4] [fold] | fold increase in EC50, EC50 [with PD1bl]/EC50 [PD1+] [5] [fold] | koff [6] [s⁻¹] | Binder |
| --- | --- | --- | --- | --- | --- | --- | --- | --- | --- | --- |
| 1.76 | 0.000749 | 426000 | 1 | 139 | 106 | 2.1 | 1 | 1.5 | 0.000446 | PD1-IL7wt (other, also called PDI-IL7wt; PD1-ILwt) light: DIVMTQSPDSLAVSLGERATINCKASESVDTSDNSFIHWYQQKPGQSPKLLIYRSSTLESGVPDRFSGSGSGTDFTLTISSLQAEDVAVYYCQQNYDVPWTFGQGTKVEIKRTVAAPSVFIFPPSDEQLKSGTASVVCLLNNFYPREAKVQWKVDNALQSGNSQESVTEQDSKDSTYSLSSTLTLSKADYEKHKVYACEVTHQGLSSPVTKSFNRGEC heavy 1: EVQLLESGGGLVQPGGSLRLSCAASGFSFSSYTMSWVRQAPGKGLEWVATISGGGRDIYYPDSVKGRFTISRDNSKNTLYLQMNSLRAEDTAVYYCVLLTGRVYFALDSWGQGTLVTVSSASTKGPSVFPLAPSSKSTSGGTAALGCLVKDYFPEPVTVSWNSGALTSGVHTFPAVLQSSGLYSLSSVVTVPSSSLGTQTYICNVNHKPSNTKVDKKVEPKSCDKTHTCPPCPAPEAAGGPSVFLFPPKPKDTLMISRTPEVTCVVVDVSHEDPEVKFNWYVDGVEVHNAKTKPREEQYNSTYRVVSVLTVLHQDWLNGKEYKCKVSNKALGAPIEKTISKAKGQPREPQVCTLPPSRDELTKNQVSLSCAVKGFYPSDIAVEWESNGQPENNYKTTPPVLDSDGSFFLVSKLTVDKSRWQQGNVFSCSVMHEALHNHYTQKSLSLSPGK heavy 2: EVQLLESGGGLVQPGGSLRLSCAASGFSFSSYTMSWVRQAPGKGLEWVATISGGGRDIYYPDSVKGRFTISRDNSKNTLYLQMNSLRAEDTAVYYCVLLTGRVYFALDSWGQGTLVTVSSASTKGPSVFPLAPSSKSTSGGTAALGCLVKDYFPEPVTVSWNSGALTSGVHTFPAVLQSSGLYSLSSVVTVPSSSLGTQTYICNVNHKPSNTKVDKKV[human IgG1 Fc with changes left out]GGGGSGGGGSGGGGSDCDIEGKDGKQYESVLMVSIDQLLDSMKEIGSNCLNNEFNFFKRHICDANKEGMFLFRAARKLRQFLKMNSTGDFDLHLLKVSEGTTILLNCTGQVKGRKPAALGEAQPTKSLEENKSLKEQKKLNDLCFLKRLLQEIKTCWNKILMGTKEH |
| 8.88 | 0.00315 | 347000 | 8.3 | 80.8 | 34.3 | 22.8 | 4.3 | 10.8 | 0.00081 | PD1-IL7-VAR18 (K81E) (other, Format as m1; IL-7 with K81E; also called PD1-IL7 -K81E (Var18); PD1-IL7v variant 18) light: DIVMTQSPDSLAVSLGERATINCKASESVDTSDNSFIHWYQQKPGQSPKLLIYRSSTLESGVPDRFSGSGSGTDFTLTISSLQAEDVAVYYCQQNYDVPWTFGQGTKVEIKRTVAAPSVFIFPPSDEQLKSGTASVVCLLNNFYPREAKVQWKVDNALQSGNSQESVTEQDSKDSTYSLSSTLTLSKADYEKHKVYACEVTHQGLSSPVTKSFNRGEC heavy 1: EVQLLESGGGLVQPGGSLRLSCAASGFSFSSYTMSWVRQAPGKGLEWVATISGGGRDIYYPDSVKGRFTISRDNSKNTLYLQMNSLRAEDTAVYYCVLLTGRVYFALDSWGQGTLVTVSSASTKGPSVFPLAPSSKSTSGGTAALGCLVKDYFPEPVTVSWNSGALTSGVHTFPAVLQSSGLYSLSSVVTVPSSSLGTQTYICNVNHKPSNTKVDKKVEPKSCDKTHTCPPCPAPEAAGGPSVFLFPPKPKDTLMISRTPEVTCVVVDVSHEDPEVKFNWYVDGVEVHNAKTKPREEQYNSTYRVVSVLTVLHQDWLNGKEYKCKVSNKALGAPIEKTISKAKGQPREPQVCTLPPSRDELTKNQVSLSCAVKGFYPSDIAVEWESNGQPENNYKTTPPVLDSDGSFFLVSKLTVDKSRWQQGNVFSCSVMHEALHNHYTQKSLSLSPGK heavy 2: EVQLLESGGGLVQPGGSLRLSCAASGFSFSSYTMSWVRQAPGKGLEWVATISGGGRDIYYPDSVKGRFTISRDNSKNTLYLQMNSLRAEDTAVYYCVLLTGRVYFALDSWGQGTLVTVSSASTKGPSVFPLAPSSKSTSGGTAALGCLVKDYFPEPVTVSWNSGALTSGVHTFPAVLQSSGLYSLSSVVTVPSSSLGTQTYICNVNHKPSNTKVDKKV[human IgG1 Fc with changes left out]GGGGSGGGGSGGGGSDCDIEGKDGKQYESVLMVSIDQLLDSMKEIGSNCLNNEFNFFKRHICDANKEGMFLFRAARKLRQFLKMNSTGDFDLHLLEVSEGTTILLNCTGQVKGRKPAALGEAQPTKSLEENKSLKEQKKLNDLCFLKRLLQEIKTCWNKILMGTKEH |
| 43 | 0.0169 | 395000 | 9.6 | 71.9 | 24.5 | 35.7 | 6.4 | 12 | 0.0049 | PD1-IL7-VAR21 (G85E) (other, Format as m1; IL-7 with G85E; also called PD1-IL7 -G85E (Var21); PD1-IL7v variant 21) light: DIVMTQSPDSLAVSLGERATINCKASESVDTSDNSFIHWYQQKPGQSPKLLIYRSSTLESGVPDRFSGSGSGTDFTLTISSLQAEDVAVYYCQQNYDVPWTFGQGTKVEIKRTVAAPSVFIFPPSDEQLKSGTASVVCLLNNFYPREAKVQWKVDNALQSGNSQESVTEQDSKDSTYSLSSTLTLSKADYEKHKVYACEVTHQGLSSPVTKSFNRGEC heavy 1: EVQLLESGGGLVQPGGSLRLSCAASGFSFSSYTMSWVRQAPGKGLEWVATISGGGRDIYYPDSVKGRFTISRDNSKNTLYLQMNSLRAEDTAVYYCVLLTGRVYFALDSWGQGTLVTVSSASTKGPSVFPLAPSSKSTSGGTAALGCLVKDYFPEPVTVSWNSGALTSGVHTFPAVLQSSGLYSLSSVVTVPSSSLGTQTYICNVNHKPSNTKVDKKVEPKSCDKTHTCPPCPAPEAAGGPSVFLFPPKPKDTLMISRTPEVTCVVVDVSHEDPEVKFNWYVDGVEVHNAKTKPREEQYNSTYRVVSVLTVLHQDWLNGKEYKCKVSNKALGAPIEKTISKAKGQPREPQVCTLPPSRDELTKNQVSLSCAVKGFYPSDIAVEWESNGQPENNYKTTPPVLDSDGSFFLVSKLTVDKSRWQQGNVFSCSVMHEALHNHYTQKSLSLSPGK heavy 2: EVQLLESGGGLVQPGGSLRLSCAASGFSFSSYTMSWVRQAPGKGLEWVATISGGGRDIYYPDSVKGRFTISRDNSKNTLYLQMNSLRAEDTAVYYCVLLTGRVYFALDSWGQGTLVTVSSASTKGPSVFPLAPSSKSTSGGTAALGCLVKDYFPEPVTVSWNSGALTSGVHTFPAVLQSSGLYSLSSVVTVPSSSLGTQTYICNVNHKPSNTKVDKKV[human IgG1 Fc with changes left out]GGGGSGGGGSGGGGSDCDIEGKDGKQYESVLMVSIDQLLDSMKEIGSNCLNNEFNFFKRHICDANKEGMFLFRAARKLRQFLKMNSTGDFDLHLLKVSEETTILLNCTGQVKGRKPAALGEAQPTKSLEENKSLKEQKKLNDLCFLKRLLQEIKTCWNKILMGTKEH |
